Laboratory results from patent US7547818B2, “Metaphase donor cells for effective nuclear reprogramming in mammals” (The University of Georgia research Foundation, Inc., priority 2000, dated 2009).

Assays:
[1] = test system: bovine granulosa cells; experiment: Cell cycle phases by flow cytometry (propidium iodide DNA content) after cell cycle inhibitors; assay type: cell-based; conditions: 26 hours, replicates
[2] = test system: bovine somatic cells; experiment: Arrest of bovine somatic cells in metaphase by nocodazole, Hoechst staining; assay type: cell-based; conditions: 200 observed

Question: How did the “percentage of cells in G2/M” value ([1]; 100 μM) turn out when `Cn1cnc2c(NCc3ccccc3)nc(NCCO)nc21` [Olo, olomoucine] was run?
Answer: 10.10% and 8.49%

Question: What about the “percentage of cells in Late G1” value ([1]; 100 μM) of the same molecule?
Answer: 68.70% and 67.73%

Question: And the “percentage of cells in S” value ([1]; 100 μM)?
Answer: 9.07% and 7.58%

Question: With `CC[C@H](CO)Nc1nc(NCc2ccccc2)c2ncn(C(C)C)c2n1` [Ros, roscovitine] as the molecule, how does the “percentage of cells in G2/M” value ([1]; 15 μM) read?
Answer: 16.29% and 16.97%

Question: And the “percentage of cells in Late G1” value ([1]; 15 μM)?
Answer: 79.78% and 79.05%

Question: And the “percentage of cells in S” value ([1]; 15 μM)?
Answer: 3.90% and 4.14%

Question: And the “percentage of cells in G2/M” value ([1]; 30 μM)?
Answer: 14.41% and 14.42%

Question: What about the “percentage of cells in Late G1” value ([1]; 30 μM) of the same molecule?
Answer: 79.08% and 77.85%

Question: What about the “percentage of cells in S” value ([1]; 30 μM) of the same molecule?
Answer: 3.90% and 4.38%

Question: `COC(=O)Nc1nc2ccc(C(=O)c3cccs3)cc2[nH]1` [nocodazole] was tested. Which “Percentage of bovine somatic cells in culture arrested” value (from here on “Percentage of bovine somatic cells”) ([2]; nocodazole 0.3 ug/ml, exposure 10 hours) did it give?
Answer: 26%

Question: And the “Percentage of bovine somatic cells” value ([2]; nocodazole 1.0 ug/ml, exposure 3 hours)?
Answer: 8%

Question: And the “Percentage of bovine somatic cells” value ([2]; nocodazole 1.0 ug/ml, exposure 10 hours)?
Answer: 25%

Question: And the “Percentage of bovine somatic cells” value ([2]; nocodazole 3 ug/ml, exposure 3 hours)?
Answer: 9%

Question: What about the “Percentage of bovine somatic cells” value ([2]; nocodazole 3 ug/ml, exposure 10 hours) of the same molecule?
Answer: 27%

Several values for one entry are separate records, joined by “and”; a condition that tells them apart may be missing. Equal entries are not always repeated.
